{"source": "paper PMC4336329", "about": "(PLoS ONE, 2015)", "note": "The whole screen tested about 310,000 compounds, of which about 14,000 (4.5%) showed an effect of 50% or more. Effects have a minus sign here. Some of the results follow.", "data": [{"target": "human ether-à-go-go-related gene (hERG) potassium channel (human, UniProt Q12809)", "sequence (Q12809 whole entry, looked up)": "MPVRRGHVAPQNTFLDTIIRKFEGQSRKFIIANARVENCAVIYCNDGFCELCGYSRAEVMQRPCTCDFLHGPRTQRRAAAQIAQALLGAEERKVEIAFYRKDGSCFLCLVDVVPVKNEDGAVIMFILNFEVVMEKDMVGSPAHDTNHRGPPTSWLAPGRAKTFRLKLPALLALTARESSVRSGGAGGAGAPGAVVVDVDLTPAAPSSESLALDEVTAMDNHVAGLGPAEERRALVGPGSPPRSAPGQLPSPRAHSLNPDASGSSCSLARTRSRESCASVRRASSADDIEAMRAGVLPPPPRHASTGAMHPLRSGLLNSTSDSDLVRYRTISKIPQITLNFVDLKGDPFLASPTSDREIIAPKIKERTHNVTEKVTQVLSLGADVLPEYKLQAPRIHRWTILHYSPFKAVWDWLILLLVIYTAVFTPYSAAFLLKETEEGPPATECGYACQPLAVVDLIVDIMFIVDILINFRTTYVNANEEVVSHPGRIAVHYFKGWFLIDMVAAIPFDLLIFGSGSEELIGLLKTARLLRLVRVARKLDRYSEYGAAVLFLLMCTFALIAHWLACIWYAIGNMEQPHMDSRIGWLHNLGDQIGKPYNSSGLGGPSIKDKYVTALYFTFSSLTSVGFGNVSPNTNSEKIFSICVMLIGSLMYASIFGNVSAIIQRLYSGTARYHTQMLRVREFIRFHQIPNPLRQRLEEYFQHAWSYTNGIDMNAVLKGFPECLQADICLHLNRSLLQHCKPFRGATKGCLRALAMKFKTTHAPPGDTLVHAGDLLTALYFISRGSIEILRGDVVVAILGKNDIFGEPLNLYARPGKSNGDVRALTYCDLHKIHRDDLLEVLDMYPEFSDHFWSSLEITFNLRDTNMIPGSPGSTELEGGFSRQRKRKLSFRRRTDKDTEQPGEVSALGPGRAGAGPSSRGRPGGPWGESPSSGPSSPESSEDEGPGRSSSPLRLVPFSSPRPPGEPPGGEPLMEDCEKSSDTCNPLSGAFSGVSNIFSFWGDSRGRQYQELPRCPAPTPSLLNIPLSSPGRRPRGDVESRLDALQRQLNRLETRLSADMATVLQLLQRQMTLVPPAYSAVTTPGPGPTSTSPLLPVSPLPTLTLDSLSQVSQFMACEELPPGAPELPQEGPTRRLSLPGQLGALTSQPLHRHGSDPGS", "assay": "primary screen, population patch clamp on CHO cells stably expressing hERG", "units": {"hERG current change (%, negative = inhibition) at 10uM": "%"}, "values": [{"compound": "O=C1/C(=C/c2ccccc2F)SC(=S)N1CC(=O)N1CCCCC1c1cccnc1", "note": "(stereo not shown);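 also: peak tail current of the secondary pulse compared with the same well before compound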", "hERG current change (%, negative = inhibition) at 10uM": 1.73}, {"compound": "CCn1c(CN2CCOCC2)nnc1SCC(=O)Nc1ccc(C)cc1", "hERG current change (%, negative = inhibition) at 10uM": 12.4}, {"compound": "Cn1nc(C(F)(F)F)c(C(=O)Nc2ccc(F)cc2F)c1Cl", "hERG current change (%, negative = inhibition) at 10uM": 5.9}, {"compound": "CC12CCC(=O)N1C(C(=O)NCc1ccccc1Cl)CS2", "note": "(stereo not shown)", "hERG current change (%, negative = inhibition) at 10uM": -9.42}, {"compound": "Cc1ccc(N(C(=O)C2CCC(=O)N2)C2(C(=O)NC3CCCC3)CCCCC2)cc1", "note": "(stereo not shown)", "hERG current change (%, negative = inhibition) at 10uM": 0.218}, {"compound": "CNC(=O)COC(=O)/C=C/c1nc2ccccc2s1", "hERG current change (%, negative = inhibition) at 10uM": 13.1}, {"compound": "OCCC1CN(CC2CCCCC2)CCN1C1CCCC1", "note": "(stereo not shown)", "hERG current change (%, negative = inhibition) at 10uM": -20.2}, {"compound": "Cc1ccc(S(=O)(=O)N2CCOCC2)cc1C(=O)NCc1ccc(F)cc1", "hERG current change (%, negative = inhibition) at 10uM": -19.3}, {"compound": "Cc1nc(C(F)(F)F)c(C(=O)N=CN(C)C)s1", "hERG current change (%, negative = inhibition) at 10uM": 19.4}, {"compound": "C(=N\\Nc1nc2ccccc2s1)/c1ccc2c(c1)OCO2", "hERG current change (%, negative = inhibition) at 10uM": 6.22}, {"compound": "O=c1c2ccccc2nc(-c2ccccc2)n1-c1cccc(O)c1", "hERG current change (%, negative = inhibition) at 10uM": 4.12}, {"compound": "O=C(O)C(=O)O.O=C(c1cccc2ccccc12)N1CCN(CC2CC=CCC2)CC1", "note": "(stereo not shown)", "hERG current change (%, negative = inhibition) at 10uM": -14.8}, {"compound": "COC(=O)c1ccc(NC(=S)NC(=O)c2c(Cl)cnn2C)cc1", "hERG current change (%, negative = inhibition) at 10uM": 26.2}, {"compound": "O=C(NCC(=O)N1CCN(C(=O)c2ccccc2)CC1)c1ccccc1", "hERG current change (%, negative = inhibition) at 10uM": 5.05}, {"compound": "Cc1csc(C(=O)NN)c1N(C)C", "hERG current change (%, negative = inhibition) at 10uM": 16.4}, {"compound": "Cl.NC1(C(=O)O)CC1", "hERG current change (%, negative = inhibition) at 10uM": 19.8}, {"compound": "COc1ccc(/C=N/NC(=O)c2ccccc2O)cc1CN1CCOCC1", "hERG current change (%, negative = inhibition) at 10uM": -12.8}, {"compound": "O=C(NCc1ccc(OC(F)(F)F)cc1)C1CC(c2ccccc2C(F)(F)F)=NO1", "note": "(stereo not shown)", "hERG current change (%, negative = inhibition) at 10uM": -11.6}, {"compound": "O=C(CSc1ccc2c(c1)OCCO2)Nc1cccnc1", "hERG current change (%, negative = inhibition) at 10uM": 19.4}, {"compound": "O=C(COC(=O)c1c[nH]c(=O)[nH]c1=O)Nc1ccccc1F", "hERG current change (%, negative = inhibition) at 10uM": 15.6}, {"compound": "CCCCNS(=O)(=O)c1ccc(OC)c2ncccc12", "hERG current change (%, negative = inhibition) at 10uM": -3.77}, {"compound": "c1ccc2[nH]c(CSc3nccs3)nc2c1", "hERG current change (%, negative = inhibition) at 10uM": -6.76}, {"compound": "CCc1nnc(NC(=O)CSc2nnc(-c3ccco3)n2C)s1", "hERG current change (%, negative = inhibition) at 10uM": 10.1}, {"compound": "CCN1CCCC1CNC(=O)c1cc2c(OC)c(OC)c(OC)cc2[nH]1", "note": "(stereo not shown)", "hERG current change (%, negative = inhibition) at 10uM": 23.2}, {"compound": "Cc1ccc(/C=N/NC(=O)Cc2ccc(Cl)cc2)c(O)c1", "hERG current change (%, negative = inhibition) at 10uM": 3.53}, {"compound": "CC(C)(C)c1ccc(C(CC(=O)O)NC(=O)Cc2ccc(F)cc2)cc1", "note": "(stereo not shown)", "hERG current change (%, negative = inhibition) at 10uM": 17.3}, {"compound": "O=[N+]([O-])c1ccc(Nc2nc(N/N=C/c3cccc(F)c3)nc(N3CCCC3)n2)cc1", "hERG current change (%, negative = inhibition) at 10uM": -1.42}, {"compound": "CC(C)(C)C1CCC(=NNC(=O)c2ccc(Br)o2)CC1", "note": "(stereo not shown)", "hERG current change (%, negative = inhibition) at 10uM": 9.16}, {"compound": "CN1C(=O)NC(c2ccccc2Cl)C2=C1CC(C)(C)CC2=O", "note": "(stereo not shown)", "hERG current change (%, negative = inhibition) at 10uM": 5.71}, {"compound": "O=C(NC12CC3CC(CC(C3)C1)C2)C12CC3CC(C1)CC(n1cnc(Cl)n1)(C3)C2", "hERG current change (%, negative = inhibition) at 10uM": 2.42}, {"compound": "COc1ccccc1CNC(=O)COC(=O)c1ccc2c(=O)n3c(nc2c1)CCCCC3", "hERG current change (%, negative = inhibition) at 10uM": -2.3}, {"compound": "Cc1ccc(S(=O)(=O)N2[C@@H](c3cccc(Cl)c3)C(C(=O)O)=CC[C@H]2c2ccc(Cl)cc2)cc1", "hERG current change (%, negative = inhibition) at 10uM": 17.6}, {"compound": "COc1ccccc1OCc1ccc(C(=O)N(C)C)o1", "hERG current change (%, negative = inhibition) at 10uM": 13.4}, {"compound": "COc1ccc(NC(C)=O)cc1S(=O)(=O)Nc1ccc2c(c1)OCCO2", "hERG current change (%, negative = inhibition) at 10uM": 10.4}, {"compound": "CC1OC2(OC1C)C(=O)Nc1ccccc12", "note": "(stereo not shown)", "hERG current change (%, negative = inhibition) at 10uM": 3}, {"compound": "CCO[C@@H]1OC(C(=O)NCc2nc3ccccc3[nH]2)=C[C@H](c2ccc(C(F)(F)F)cc2)[C@H]1CCCO", "hERG current change (%, negative = inhibition) at 10uM": -3.34}, {"compound": "Cc1nnc(-c2ccccc2)nc1N(C)C", "hERG current change (%, negative = inhibition) at 10uM": -5.86}, {"compound": "COc1ccc(C(=O)N(CC(=O)Nc2sc(C)c(C)c2C(N)=O)C2CCCC2)cc1", "hERG current change (%, negative = inhibition) at 10uM": -3.88}, {"compound": "CCc1ccccc1NC(=O)CSc1nc2ccccc2n1CC(=O)N1CCCC1", "hERG current change (%, negative = inhibition) at 10uM": 4.01}, {"compound": "CCOc1ccccc1NC(=O)C1CCCN(C(=O)Nc2ccccc2)C1", "note": "(stereo not shown)", "hERG current change (%, negative = inhibition) at 10uM": -1.4}, {"compound": "N#CC(=C1CCCC1)c1nc(-c2ccccc2O)cs1", "hERG current change (%, negative = inhibition) at 10uM": 2.45}, {"compound": "CCSc1nnc2c(n1)OC1(CCCC1)Nc1ccccc1-2", "hERG current change (%, negative = inhibition) at 10uM": 2.61}, {"compound": "CNC(=O)N1CCN(C(=O)NC)CC1", "hERG current change (%, negative = inhibition) at 10uM": 10.8}, {"compound": "CC(C)C[C@H]1COCCS(=O)(=O)N1Cc1ccc(Cl)c(Cl)c1", "hERG current change (%, negative = inhibition) at 10uM": -2.04}, {"compound": "O=C(NCCS(=O)(=O)N1CCN(c2ccccc2F)CC1)c1ccc2c(c1)OCO2", "hERG current change (%, negative = inhibition) at 10uM": 11.2}, {"compound": "CS(=O)(=O)N1CCC(Oc2ccccc2C(=O)N2CCN(CC3CC3)CC2)CC1", "hERG current change (%, negative = inhibition) at 10uM": 20.2}, {"compound": "CN(C)C(=S)NC(=O)C12CC3(C)CC(C)(CC(C)(C3)C1)C2", "hERG current change (%, negative = inhibition) at 10uM": 17.4}, {"compound": "O=C(Nc1nc(-c2nc3ccccc3s2)cs1)C1COc2ccccc2O1", "note": "(stereo not shown)", "hERG current change (%, negative = inhibition) at 10uM": 5.47}, {"compound": "COc1ccc(/C(C)=C2/SC(=S)N(CCC(=O)O)C2=O)cc1", "hERG current change (%, negative = inhibition) at 10uM": 8.29}, {"compound": "O=C1C(=O)N(Cc2ccccc2)C(c2cccc(O)c2)/C1=C(\\O)c1ccc2c(c1)OCCO2", "note": "(stereo not shown)", "hERG current change (%, negative = inhibition) at 10uM": 5.96}, {"compound": "O=C(CSc1nc2c(c(=O)n1-c1ccccc1)SCC2)N1CCOCC1", "hERG current change (%, negative = inhibition) at 10uM": 5.25}, {"compound": "Cc1cccc(NS(=O)(=O)c2c(C)[nH]c(C)c2C(=O)N2CCCC2)c1", "hERG current change (%, negative = inhibition) at 10uM": 14}, {"compound": "COc1ccc([N+](=O)[O-])cc1NC(=S)Nc1ccccc1", "hERG current change (%, negative = inhibition) at 10uM": -31.5}, {"compound": "COc1ccc(C2NC(Cc3ccccc3)(C(=O)O)C3C(=O)N(c4ccccc4OC)C(=O)C23)cc1", "note": "(stereo not shown)", "hERG current change (%, negative = inhibition) at 10uM": 11.6}, {"compound": "COCCCNC(=O)/C(C#N)=c1\\s/c(=C\\c2ccccc2OC(F)F)c(=O)n1CCCOC", "hERG current change (%, negative = inhibition) at 10uM": 13.7}, {"compound": "O=C1Nc2ccc(S(=O)(=O)N3CCOCC3)c3cccc1c23", "hERG current change (%, negative = inhibition) at 10uM": 1.48}, {"compound": "Cc1cc([N+](=O)[O-])nn1CC(=O)Nc1c(C)n(C)n(-c2ccccc2)c1=O", "hERG current change (%, negative = inhibition) at 10uM": 18.4}, {"compound": "CCO[C@H]1OC(C(=O)NC2CC2)=C[C@@H](c2csc3ccccc23)[C@@H]1CCCO", "hERG current change (%, negative = inhibition) at 10uM": -34.5}]}]}
